# Data as given in PubChem BioAssay AID686979 (National Center for Advancing Translational Sciences (NCATS), 2013).
# Values joined by “and” are separate entries in the source; they are usually repeats but may differ in a detail not shown here. Identical values can stand only once. Among all 420,000 compounds or so, about 50,000 (12%) were called active. Inconclusive means that the source gave no clear call. Such entries were picked first, then a sample of the others. Calls come from the whole dose curve; as a rule, active = well fitted inhibition curve with a large enough effect; inconclusive = small, poorly fitted or top-dose-only effect; inactive = flat fitted curve, though single readings scatter. Potencies of inconclusive entries are doubtful fits and often do not repeat.
# Experiment: qHTS for Inhibitors of human tyrosyl-DNA phosphodiesterase 1 (TDP1): qHTS in cells in presence of CPT; note: nearly all actives have a fitted effect of over 55% in size
# Conditions: chicken DT40 Tdp1-/-;hTDP1 cells + 20 nM CPT, ATP luminescence, 48 h; activity change, negative = growth inhibition: at 46.2 µM (top of the series) unless noted
# How it was run: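 Cell growth measured by CellTiter-Glo luminescence after a minimum 48 h, 37 C compound exposure with 20 nM CPT in Tdp1-knockout DT40 cells stably expressing hTDP1, seeded 400/well; qHTS titration format.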
# % is set by controls: 0 for no effect and ±100 for the full control effect; potency is the fitted concentration of half-maximal effect; tags give direction and shape of the fitted curve.
SMILES,Potency,"activity change, negative = growth inhibition"
Cc1sc2nc(C3CC3)nc(SCC(=O)N3CCc4ccccc4C3)c2c1C,"inconclusive: 23.1 µM [inhibitor, partial curve, poor fit]",
O=C(NC1CCCC1)c1ccc(COc2ccccc2Br)o1,"inconclusive: 23.1 µM [inhibitor, single point]",
Cc1ccc(C)c(S(=O)(=O)N2CCC(c3nc4c(nnn4Cc4ccc(F)cc4)c(=O)[nH]3)CC2)c1,"inconclusive: 29.1 µM [inhibitor, single point]",
CC(C)CNC(=O)c1ccc(NC(=O)c2cccs2)cc1,,inactive: -20.1%
CCOc1ccc(-n2c(-c3ccc(OC)cc3)c[n+]3c2CCCCC3)cc1,active: 0.206 µM,
CCN(CC)S(=O)(=O)c1ccc(C(=O)N2CCN(C3=NS(=O)(=O)c4ccccc43)CC2)cc1,,inactive: -16.6%
Cc1ccc2nc3c(cc(C(=O)NC4CCCCC4)c(=N)n3C3CCCCC3)c(=O)n2c1,"inconclusive: 29.1 µM [inhibitor, single point]",
CC1(C(=O)Nc2ccccc2Br)CCN1C(=O)CC1CC1 (stereo not given),,inactive: -2.61%
CC(NC(=O)CCc1nnc(-c2ccc(-c3ccccc3)cc2)o1)c1nccs1 (stereo not given),active: 25.9 µM,
COCCCN1CCc2[nH]c(=S)[nH]c(=O)c2C1,,inconclusive: -30.5% [inhibitor]
O=C(Nc1ccc(O)cc1)c1cccc(S(=O)(=O)N2CCOCC2)c1,,inactive: 5.49%
CCOC(=O)N1CCN(CCC(=O)Nc2cccc(C)c2)CC1,,inactive: -5.5%
CCCN1CCCc2cc(CN(CCCN3CCOCC3)C(=O)Nc3ccc(CC)cc3)ccc21,active: 23.1 µM,
Cc1ccc(C)c(NC(=O)Cn2c(=O)n(CCC(=O)NCc3ccc4c(c3)OCO4)c(=O)c3ccccc32)c1,,inactive: -17.1%
CCN(CC)CCCN=Cc1c(O)n(-c2cccc(C)c2)c(=O)c2ccccc12,"inconclusive: 29.1 µM [inhibitor, single point]",
COc1ccccc1NC(=O)Cc1cccc2ccccc12,"inconclusive: 23.1 µM [inhibitor, single point]",
CCOC(=O)C1CCCN(C(=O)c2ccc3c(c2)N(Cc2ccccc2)C(=O)c2ccccc2S3=O)C1 (stereo not given),"inconclusive: 29.1 µM [inhibitor, single point] and inconclusive: 18.4 µM [inhibitor, partial curve]",
Cc1ccc2nc(C)/c(=N\O)c(C)nc2c1,,inactive: -0.0806%
CC(=O)NNc1nc(-c2ccccc2)c2cc(Cl)ccc2n1,,inactive: -20.4%
COc1cccc(/C=N\NC(=O)c2sc(N)nc2C)c1OC,"inconclusive: 29.1 µM [inhibitor, single point]",
CCSc1nnc(-c2ccc(C)cc2)c2ccccc12,"inconclusive: 23.1 µM [inhibitor, single point]",
CCOC(=O)c1cccc(Nc2ccc3cc(S(=O)(=O)N4CCCCC4)ccc3n2)c1,active: 23.1 µM,
O=C(NNC(=O)c1ccc(Oc2ccc(C3SCCS3)cc2)o1)c1ccc(Cl)cc1,"inconclusive: 23.1 µM [inhibitor, single point]",
O=c1c2oc3ccccc3c2n(Cc2ccccc2)c(=O)n1Cc1ccc2c(c1)OCO2,"inconclusive: 29.1 µM [inhibitor, single point]",

SMILES,Potency,"activity change, negative = growth inhibition"
Cc1ccccc1OCC(=O)N/N=C/c1ccc(N2CCOCC2)o1,"inconclusive: 29.1 µM [inhibitor, single point]",
Cc1ccc(S(=O)(=O)N2CCCCC2)cc1NC(=O)CCc1nc2ccccc2c(=O)[nH]1,"inconclusive: 20.6 µM [inhibitor, single point]",
Cc1ccc(C(=O)N2CCCC(C(=O)Nc3cccc(-c4ccc(F)cc4)c3)C2)cn1 (stereo not given),active: 16.4 µM,
O=c1c(-c2ccccc2)nc2cnc(N3CCNCC3)nc2n1Cc1cccs1,"inconclusive: 18.4 µM [inhibitor, single point]",
Cc1ccc(-c2noc(-c3ccoc3C)n2)cc1,,inactive: -23.1%
COc1cccc(CNC(=O)c2ccc(NC(=O)N3CCCCc4ccccc43)cc2)c1,"inconclusive: 16.4 µM [inhibitor, single point]",
O=C(c1cc(-c2cccc(O)c2)on1)N1CCc2ccccc2C1,"inconclusive: 5.8 µM [inhibitor, full curve]",
COc1cc2c(cc1OC)n(CC(=O)c1ccc(F)cc1)c(=O)n1nc(CCn3nc(C)cc3C)nc21,"inconclusive: 4.11 µM [inhibitor, full curve, poor fit]",
Cc1cccc(N(C)c2ncnc3onc(-c4ccc(F)cc4)c23)c1C,"inconclusive: 20.6 µM [inhibitor, single point]",
Cc1cc(C(=O)COc2cccc([N+](=O)[O-])c2)c(C)n1C1CC1,"inconclusive: 25.9 µM [inhibitor, single point]",
CCCC(=O)N1c2nc(C(C)C)nn2C2(CCCCC2)[C@@H]2CCCC[C@@H]21,active: 10.3 µM,
Cc1ccc(S(=O)(=O)NCc2ccc(N3CCN(C(=O)OC(C)(C)C)CC3)cc2)cc1,active: 13 µM,
Cc1cc(C)c(NC(=S)NCCCSC2CCCCC2)c(C)c1,"inconclusive: 25.9 µM [inhibitor, single point]",
CCCCN1CC(=O)N2[C@H]3c4ccc(OC)cc4OC[C@@H]3[C@H](c3ccccc3)[C@]2(C)C1=O,"inconclusive: 29.1 µM [inhibitor, single point]",
O=C(OCc1cn([C@H]2CN(C(=O)c3cccs3)[C@@H](c3ccc(Cl)cc3)C[C@@H]2O)nn1)c1ccccc1,active: 23.1 µM,
CCn1c(COc2cccc(C)c2)nnc1SCC(=O)NC1CCCC1,"inconclusive: 29.1 µM [inhibitor, single point]",
O=C(Nc1ccc(S(=O)(=O)NCc2cccnc2)cc1)c1ccco1,"inconclusive: 7.31 µM [inhibitor, partial curve]",
O=C1C(c2ccccc2)=[N+]([O-])c2ccccc21,active: 5.17 µM,
COc1cc(-c2noc(C)c2/C=C/c2cccc([N+](=O)[O-])c2)cc(OC)c1OC,active: 708 nM and active: 1.3 µM,
O=C(c1cc([N+](=O)[O-])ccc1Cl)N1c2ccccc2Sc2ccccc21,"inconclusive: 18.4 µM [inhibitor, single point]",
COc1ccc(S(=O)(=O)N(C)c2ccc(C(=O)N3CCOCC3)cc2)cc1,,inactive: -21.2%
COC(=O)NCc1cccc(CNC(=O)OC)c1,,inactive: -1.24%
COc1cc(-c2noc(C)c2C(=O)NCc2ccc(C)o2)cc(OC)c1OC,"inconclusive: 29.1 µM [inhibitor, single point]",
Cn1c(C(=O)N2CCCC(C(=O)NCCCc3ccccc3)C2)cc2sccc21 (stereo not given),active: 18.4 µM,

SMILES,Potency,"activity change, negative = growth inhibition"
CCOC(=O)Cc1c(C)nc2c(-c3ccccc3)cnn2c1C,"inconclusive: 20.6 µM [inhibitor, single point]",
CCOC(=O)c1ccc(N2CCN(C(C)=O)CC2)c(NC(=O)c2cccnc2)c1,,inactive: -4.13%
COC(=O)C[C@H]1c2cc(C(F)(F)F)ccc2S(=O)(=O)N1Cc1ccccc1OC,"inconclusive: 20 µM [inhibitor, single point]",
Cc1nn(CCCC(=O)NC(C)c2ccccc2)c(=O)c2nn(-c3ccccc3)c(C)c12 (stereo not given),,inactive: 0.888%
O=C(c1cc(-c2ccccn2)nc2c(Cl)cccc12)N1CCN(C(=O)C2CCCO2)CC1 (stereo not given),,inactive: -29.7%
NC(=O)CC(NC(=O)Cc1cccc2ccccc12)c1ccc(NCc2ccccc2)c([N+](=O)[O-])c1 (stereo not given),"inconclusive: 20.6 µM [inhibitor, single point]",
Cc1nc(NC(=O)/C=C/c2ccc(C(C)(C)C)cc2)sc1C(=O)N(C)C,"inconclusive: 20.6 µM [inhibitor, single point]",
Cc1ccc(S(=O)(=O)N2CCCC2)cc1C(=O)NCCOc1ccccc1,,inactive: -24.4%
OC[C@@H]1CN(Cc2ccccc2)C[C@H](n2cnc3c(NC4CC4)ncnc32)O1,,inactive: -14.2%
Cc1ccc(-c2nc(SCC(=O)NCC3CCCO3)c(-c3ccc(C)cc3)[nH]2)cc1 (stereo not given),"inconclusive: 25.9 µM [inhibitor, single point] and inconclusive: 20.6 µM [inhibitor, single point]",
CN(C)Cc1ccccc1Sc1ccc2c(c1)CCCC2,"inconclusive: 13 µM [inhibitor, single point]",
CN1CCn2c1nc(N1CCOCC1)nc2=O,,inactive: 2.63%
Cc1cn(COC/C=C/c2ccccc2)c(=O)[nH]c1=O,,inactive: -9.62%
CCCCC/C(=N\NC(=O)CCC(=O)NCc1ccccc1)c1ccccc1,"inconclusive: 18.4 µM [inhibitor, single point]",
COC(=O)c1cn([C@@H]2C[C@@H](C(=O)Nc3cccc(SC)c3)N(C3CCCCCC3)C2)nn1,,inactive: 4.44% [at 9.04 µM]
COc1ccc(CCNC(=O)C2CC3Cn4c(nc5cc(Cl)c(Cl)cc54)C3N2C)cc1 (stereo not given),active: 20.6 µM,
NC(=O)c1cc(S(=O)(=O)NCC2CCC(C(=O)Nc3ccc(Cl)cc3)CC2)cs1 (stereo not given),"inconclusive: 7.31 µM [inhibitor, partial curve]",
Cc1ccc(/C(N)=N/OC(=O)Cc2ccccc2)cc1,,inactive: 8.71%
COc1cc(NC(=O)c2sc(C)nc2C)c(OC)cc1NC(=O)c1ccccc1,"inconclusive: 29.1 µM [inhibitor, single point]",
CCN(CC)C(=O)Cn1cnc2sc(C(=O)NCCCN3CCOCC3)c(C)c2c1=O,,inactive: 15%
Cc1nnc(N2CCN(C(=O)Nc3cccc(C(F)(F)F)c3)CC2)c2nn(-c3ccccc3)c(C)c12,"inconclusive: 29.1 µM [inhibitor, single point]",
COc1cccc(/C=N/Nc2nc(Nc3ccccc3)nc(-n3nc(C)cc3C)n2)c1O,active: 0.82 µM,
